Consider 43 molecules from PMC4336329 (PLoS ONE, 2015).

The structures appear in SMILES notation. Screen size: about 310,000 compounds; about 14,000 (4.5%) showed an effect of 50% or more. Effects have a minus sign here. The list shows a part of the results.
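Further: peak tail current of the secondary pulse compared with the same well before compound.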

For this test, the target named is human ether-à-go-go-related gene (hERG) potassium channel (human, UniProt Q12809). In words: primary screen, population patch clamp on CHO cells stably expressing hERG.
Sequence of human ether-à-go-go-related gene (hERG) potassium channel (Q12809 whole entry, looked up): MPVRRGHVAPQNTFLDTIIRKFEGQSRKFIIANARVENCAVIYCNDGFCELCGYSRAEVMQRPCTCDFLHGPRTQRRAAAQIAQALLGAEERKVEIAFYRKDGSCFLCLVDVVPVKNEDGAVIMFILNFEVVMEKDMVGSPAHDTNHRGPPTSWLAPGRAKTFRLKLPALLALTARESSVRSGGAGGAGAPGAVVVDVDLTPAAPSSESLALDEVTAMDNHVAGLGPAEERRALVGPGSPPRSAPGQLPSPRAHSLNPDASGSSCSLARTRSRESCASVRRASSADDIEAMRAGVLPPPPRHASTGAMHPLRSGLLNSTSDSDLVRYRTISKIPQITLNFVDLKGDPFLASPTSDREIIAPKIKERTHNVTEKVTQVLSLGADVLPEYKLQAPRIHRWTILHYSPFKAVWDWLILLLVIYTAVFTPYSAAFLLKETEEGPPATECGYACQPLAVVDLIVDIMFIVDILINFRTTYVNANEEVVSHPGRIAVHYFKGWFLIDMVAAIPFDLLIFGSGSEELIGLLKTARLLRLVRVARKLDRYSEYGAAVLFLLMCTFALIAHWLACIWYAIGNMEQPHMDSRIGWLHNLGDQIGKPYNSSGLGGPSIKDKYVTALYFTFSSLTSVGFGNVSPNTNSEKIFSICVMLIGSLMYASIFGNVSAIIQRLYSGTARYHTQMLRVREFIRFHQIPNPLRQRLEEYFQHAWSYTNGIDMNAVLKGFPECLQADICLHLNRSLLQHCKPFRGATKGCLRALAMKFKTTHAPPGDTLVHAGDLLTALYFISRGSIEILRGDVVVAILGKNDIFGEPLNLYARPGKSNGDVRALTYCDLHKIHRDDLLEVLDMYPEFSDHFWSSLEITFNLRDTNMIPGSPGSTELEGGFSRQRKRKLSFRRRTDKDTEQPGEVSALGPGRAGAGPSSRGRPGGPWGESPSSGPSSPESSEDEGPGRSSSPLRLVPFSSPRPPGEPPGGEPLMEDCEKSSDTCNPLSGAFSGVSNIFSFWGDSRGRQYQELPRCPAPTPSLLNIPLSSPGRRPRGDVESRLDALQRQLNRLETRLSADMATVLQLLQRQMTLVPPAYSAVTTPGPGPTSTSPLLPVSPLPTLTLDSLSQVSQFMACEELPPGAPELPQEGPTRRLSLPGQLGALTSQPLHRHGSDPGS
Regarding `Cn1c(-c2cccc(Br)c2)n[nH]c1=O`, the “hERG current change (%, negative = inhibition) at 10uM” value is 12.5%.

For `Cc1ccc(C)c(NC(=O)c2cnccn2)c1`, the “hERG current change (%, negative = inhibition) at 10uM” value stood at 14.7%.

Consider `COc1ccc(N2C(=O)NC(=O)C2=O)cc1`, for which the “hERG current change (%, negative = inhibition) at 10uM” value is given as 8.45%.

`CC1(C)CC(=O)C(C=NCCCN2CCCC2=O)=C(O)C1`: the “hERG current change (%, negative = inhibition) at 10uM” value amounted to 7.94%.

On to `COc1cc(C(=O)NCc2nnc(SCC(=O)Nc3nc4ccc(C)cc4s3)o2)cc(OC)c1OC`, for which the “hERG current change (%, negative = inhibition) at 10uM” value is listed as 19.5%.

Consider `CC1(C(=O)NC2CCCCCCC2)CC1(Cl)Cl` (stereo not shown), for which the “hERG current change (%, negative = inhibition) at 10uM” value is on record as -3.53%.

For the molecule `CCN(C(=O)COC(=O)c1cccs1)c1c(N)n(Cc2ccccc2)c(=O)[nH]c1=O`, the “hERG current change (%, negative = inhibition) at 10uM” value was determined as 18.3%.

Consider `O=C(Nc1ccc(Cl)cc1)Nc1ccccn1`, for which the “hERG current change (%, negative = inhibition) at 10uM” value worked out at 8.38%.

Regarding `CCCN1CCC(NC(=O)Nc2ccc(Br)cc2)CC1`, the “hERG current change (%, negative = inhibition) at 10uM” value is reported as 19.7%.

`O=C(NCc1ccncc1)C(=O)NCC(c1ccccc1)c1ccccc1`: the “hERG current change (%, negative = inhibition) at 10uM” value is -28.8%.

Turning to `CCCCCOc1ccc(C(=O)N(Cc2ccco2)C2CCS(=O)(=O)C2)cc1` (stereo not shown), the “hERG current change (%, negative = inhibition) at 10uM” value is recorded as -22.7%.

Regarding `COc1cccc(COC(=O)c2ccc(S(=O)(=O)N3CCC(C)CC3)cc2)c1OC`, the “hERG current change (%, negative = inhibition) at 10uM” value turned out to be 4.23%.

For the molecule `COc1ccc(C(CC(=O)c2ccccc2)CC(=O)c2ccccc2)cc1`, the “hERG current change (%, negative = inhibition) at 10uM” value is listed as 5.77%.

As for `Cc1cccc(NC(=O)COC(=O)CCCC2=NS(=O)(=O)c3ccccc3N2)c1`, the “hERG current change (%, negative = inhibition) at 10uM” value was found to be 10.7%.

`Brc1ccc(-c2noc3c2-c2nc(-c4ccccc4)sc2CC3)cc1`: the “hERG current change (%, negative = inhibition) at 10uM” value is recorded as 8.09%.

Regarding `CCC(CC)NCc1ccc2c(c1)c1ccccc1n2CC.O=C(O)C(=O)O`, the “hERG current change (%, negative = inhibition) at 10uM” value is reported as -28.5%.

Turning to `COC(OC)c1ccc(C#N)c(=O)[nH]1`, the “hERG current change (%, negative = inhibition) at 10uM” value amounted to 30.7%.

`COCCCNC(=S)Nc1ccc(S(=O)(=O)Nc2cc(OC)nc(OC)n2)cc1`: the “hERG current change (%, negative = inhibition) at 10uM” value is on record as -30.9%.

As for `Cc1ccc(Nc2nc(CSc3nnc(-c4ccccc4C)n3C)cs2)cc1`, the “hERG current change (%, negative = inhibition) at 10uM” value is given as -31.3%.

For `CCCCCn1c(=O)c(C(=O)OCC)c(Cl)c2ccccc21`, the “hERG current change (%, negative = inhibition) at 10uM” value is -73.8%.

In the case of `N[C@@H](Cc1ccc(O)c(I)c1)C(=O)O`, the “hERG current change (%, negative = inhibition) at 10uM” value is 17.6%.

In the case of `CCCCNC(=O)C1Cc2cc(S(=O)(=O)N3CCCCC3)ccc2N1C(C)=O` (stereo not shown), the “hERG current change (%, negative = inhibition) at 10uM” value was determined as 17.4%.

Regarding `COc1ccc(N(Cc2cc3ccccc3[nH]c2=O)S(=O)(=O)c2ccc(C)cc2)cc1`, the “hERG current change (%, negative = inhibition) at 10uM” value was found to be 3.72%.

With `CN(CC(=O)Nc1ccc(F)cc1)C(=O)CNC(=O)C1CCCCC1`, the “hERG current change (%, negative = inhibition) at 10uM” value is -2.07%.

For the molecule `Cc1nc2ccc(NC(=O)c3ccc(Cl)c(S(=O)(=O)N(C)c4ccccc4)c3)cc2s1`, the “hERG current change (%, negative = inhibition) at 10uM” value is 10.3%.

Consider `COCC(C)n1c(COc2ccccc2F)nnc1SCc1c(C)noc1C` (stereo not shown), for which the “hERG current change (%, negative = inhibition) at 10uM” value was -1.85%.

For the molecule `c1ccc(-c2nnc3sc(CN4CCc5ccccc54)cn23)cc1`, the “hERG current change (%, negative = inhibition) at 10uM” value was -8.03%.

Turning to `O=C(c1cccs1)n1cc(C(=S)N2CCOCC2)c2ccccc21`, the “hERG current change (%, negative = inhibition) at 10uM” value is reported as -4.37%.

In the case of `CCN(CC)CC1CCCCN1CC(=O)N1c2ccccc2C(=O)Nc2cccnc21` (stereo not shown), the “hERG current change (%, negative = inhibition) at 10uM” value came out at 15.9%.

As for `COc1ccc(C(C)=O)cc1CSc1nnc(-c2ccccc2O)n1-c1ccccc1`, the “hERG current change (%, negative = inhibition) at 10uM” value is on record as -36.5%.

Consider `O=C1c2ccccc2C(=O)N1CCCCN(C(=O)c1cc([N+](=O)[O-])ccc1Cl)c1ccc(Cl)cc1`, for which the “hERG current change (%, negative = inhibition) at 10uM” value is reported as 0.537%.

With `CCCn1c(SCC(=O)N(C2CCCCC2)C2CCS(=O)(=O)C2)n[nH]c1=O` (stereo not shown), the “hERG current change (%, negative = inhibition) at 10uM” value is -4.16%.

Regarding `O=C(COC(=O)c1ccccc1NC(=O)c1ccco1)Nc1ncc(Cl)cc1Cl`, the “hERG current change (%, negative = inhibition) at 10uM” value is given as -32.5%.

Take `COc1ccc(NC(=O)c2cccnc2Nc2ccccc2)cc1`: the “hERG current change (%, negative = inhibition) at 10uM” value is recorded as 1.93%.

With `CCOc1ccc(NC(=NCc2ccc3c(c2)OCO3)SC2CC(=O)N(c3ccc(OCC)cc3)C2=O)cc1` (stereo not shown), the “hERG current change (%, negative = inhibition) at 10uM” value is on record as -1.29%.

Turning to `CCCCCc1ccc(S(=O)(=O)Nc2cc(C)ccn2)cc1`, the “hERG current change (%, negative = inhibition) at 10uM” value was found to be 8.41%.

Consider `O=C(O)/C=C/c1cn(-c2ccccc2)nc1-c1cc2ccccc2o1`, for which the “hERG current change (%, negative = inhibition) at 10uM” value was found to be 30.4%.

`O=C(CC1SC(N2CCCC2)=NC1=O)Nc1ccc(C(=O)NCCc2ccc(F)cc2)cc1` (stereo not shown): the “hERG current change (%, negative = inhibition) at 10uM” value is recorded as -1.38%.

For `Nc1ccc(N2CCN(Cc3ccccc3Cl)CC2)c(Cl)c1`, the “hERG current change (%, negative = inhibition) at 10uM” value is -11.4%.

As for `O=C(N/N=C/c1ccc2c(c1)OCO2)C(O)c1ccccc1` (stereo not shown), the “hERG current change (%, negative = inhibition) at 10uM” value is 3.3%.

`CCOc1nc(SC(C(C)=O)C(=O)Nc2ccccc2)nc(N(C)C)n1` (stereo not shown): the “hERG current change (%, negative = inhibition) at 10uM” value was -14.4%.

In the case of `Cc1ccccc1OCC(O)CN1CCN(c2ccc(Cl)cc2)CC1` (stereo not shown), the “hERG current change (%, negative = inhibition) at 10uM” value is -66.3%.

On to `COc1ccc(C(=O)C2CCCN(Cc3cnc(N4CCCC4)s3)C2)cc1OC` (stereo not shown), for which the “hERG current change (%, negative = inhibition) at 10uM” value is -44%.
